Test results reported in PubChem BioAssay AID881 (National Center for Advancing Translational Sciences (NCATS), 2007).
About 610 (0.55%) of roughly 110,000 compounds were called active. The shares of active, inactive and inconclusive entries below differ from those in the screen. Calls follow the shape of the dose curve; as a rule, active = well fitted inhibition curve with a large enough effect; inconclusive = small, poorly fitted or top-dose-only effect; inactive = no such curve, though single readings can be large or run the other way. A potency beside an inconclusive call is a rough fit, not a confirmed value.

target: Polyunsaturated fatty acid lipoxygenase ALOX15B (Homo sapiens) (UniProt O15296); experiment: qHTS Assay for Inhibitors of 15-hLO-2 (15-human lipoxygenase 2); settings: purified 15hLO-2, xylenol orange hydroperoxide absorbance; series mostly up to 57.1 µM; also: nearly all actives have a fitted effect of over 60% in size
Source text: Assay Overview: NIH Molecular Libraries Screening Centers Network [MLSCN] NIH Chemical Genomics Center [NCGC] MLSCN Grant: MH081283-01A1 PI Name: Holman, T.R., University of California, Santa Cruz Human lipoxygenase 15hLO-2 is a member of the closely related lipoxygenase family of enzymes which catalyze the site-specific oxidation of arachidonic acid to various hormone precursor molecules and as such is a candidate for drug development in a variety of disease areas, such as cancer and inflammation. Inhibition of 15hLO-2 activity was screened by utilizing arachidonic acid as a substrate. The extent of hydroperoxide product formation was measured by a secondary chromogenic reaction in which xylenol orange (XO, Sigma-Aldrich, cat. number 39,818-7) reacts with the ferric ions produced from the reaction between the hydroperoxide and ferrous ions. The Fe(III)-XO complex is characterized with red-shifted absorbance at 560 nm. A purified preparation of human 15hLO-2 was supplied by Professor Ted Holman, University of California, Santa Cruz.
Assay Protocol: Buffer: 25 mM Hepes pH 7.5, 0.01% Triton X-100. Reagents/Controls: Buffer in columns 3 and 4 as negative control (no enzyme). Substrate solution: 45 uM arachidonic acid (Sigma-Aldrich, St. Louis, MO) final concentration dispensed throughout the plate. Enzyme: 50 nM 15hLO-2 final concentration in columns 1, 2, 5-48. Column 1 is neutral (100% activity). Column 2 contained pin-transferred titration of NDGA (nordihidroguaiaretic acid, Sigma-Aldrich, N 5023, top concentration 10 mM in DMSO, then 1:2 dilution in duplicate). (Dilution factor: 23 nL into 4 uL.) Chromogenic detection reagent (divalent iron/xylenol orange, Fe-XO): 200 uM xylenol orange plus 300 uM ferrous ammonium sulfate prepared freshly in 50 mM sulfuric acid. Assay Steps: Three uL of enzyme were dispensed to 1536-well Greiner black clear bottom plates. Compounds and controls (23 nL) were transferred via Kalypsys PinTool. The plates were incubated for 15 min at room temperature, and then 1 uL of substrate solution was added to start the reaction. After room temperature incubation for 90 minutes, 4 uL of Fe-XO solution was added to each well followed by a short spin (1000 rpm, 15 sec) and the plates were then incubated for 30 min. The absorbance at 405 and 573 nm were measured using ViewLux (Perkin-Elmer) High-throughput CCD imager and absorbance protocol settings. The 573-to-405 absorbance ratio was used to compute reaction progress.
Potency is read from the fitted curve at half-maximal effect; tags tell the direction and shape of the fitted curve.

Structure (SMILES)	Potency
Cc1ccc(-c2cc(-c3ccccc3)c(C#N)c(N)n2)o1	inconclusive: 3.16 µM [inhibitor, partial curve]
Cc1cc(NC(=O)c2cc(-c3ccc4c(c3)OCO4)on2)n(-c2ccccc2)n1	inconclusive: 12.6 µM [inhibitor, single point]
Cc1cccc(C)c1NC(=O)CSc1nnc(-c2ccco2)c(-c2ccco2)n1	inconclusive: 15.8 µM [inhibitor, partial curve]
COC(=O)C(C)N1C(=O)S/C(=C\c2cc(C)n(-c3ccccn3)c2C)C1=O (centres undefined)	inconclusive: 15.8 µM [inhibitor, partial curve]
CCCCSc1nnc(NC(=O)CCc2ccccc2)s1	inactive
Cc1nc(-c2cccc(S(=O)(=O)N3CCOCC3)c2)cs1	inconclusive: 7.94 µM [inhibitor, single point]
CC(C)C(C)NC(=O)CSc1nc2scc(-c3ccco3)c2c(=O)n1-c1ccccc1 (centres undefined)	inconclusive: 15.8 µM [inhibitor, partial curve]
CCC(C)(C)C(=O)O[C@@H]1C[C@H](C)C=C2C=C[C@H](C)[C@@H](CC[C@H]3C[C@@H](O)CC(=O)O3)[C@H]21	inactive
Cc1ccc(NC(=O)c2cc(-c3ccc(C)o3)nc3ccccc23)nc1	inconclusive: 3.98 µM [inhibitor, full curve]
O=C1CC(N2CCC(c3nc4ccccc4o3)CC2)C(=O)N1c1ccc(Cl)c(C(F)(F)F)c1 (centres undefined)	inconclusive: 25.1 µM [inhibitor, partial curve]
COc1ccc(Oc2ncc3nc(CCc4ccccc4)c(=O)n(CCC#N)c3n2)cc1	inactive
O=C(NC1CCN(C(=O)N2c3ccccc3Sc3ccccc32)CC1)c1ccccc1Cl	inconclusive: 20 µM [inhibitor, partial curve, poor fit]
CCN1CCn2c3c(c4cc(C)ccc42)CCCC31 (centres undefined)	inconclusive: 15.8 µM [inhibitor, partial curve]
NC(=O)N1OCC2COc3ccc4ccccc4c3C21 (centres undefined)	inactive
O=c1c2ccccc2nc(SCc2ccccc2)n1Cc1ccco1	inconclusive: 31.6 µM [inhibitor, single point]
CCNC(=S)N1CCN(c2ccc([N+](=O)[O-])cc2)CC1	inconclusive: 12.6 µM [inhibitor, partial curve]
Cc1nc(CCNC(=O)Cc2ccc(F)cc2)cs1	inactive
Cc1cc(C)nc(SCC(=O)NC2=NN=C(c3ccc(Br)cc3)CS2)n1	inconclusive: 10 µM [inhibitor, partial curve]
CNC(=S)Nc1ccc(Nc2ccccc2)cc1	inconclusive: 10 µM [inhibitor, partial curve]
